# Experimental data as given in PMC4336329 (PLoS ONE, 2015).
# In all, about 310,000 compounds went through this assay and about 2,200 (0.71%) showed an effect of 50% or more. Effects have a minus sign here. Some of the results follow.
# Biological target: human ether-à-go-go-related gene (hERG) potassium channel (human, UniProt Q12809)
# Assay: primary screen, population patch clamp on CHO cells stably expressing hERG
# human ether-à-go-go-related gene (hERG) potassium channel, sequence (Q12809 whole entry, looked up): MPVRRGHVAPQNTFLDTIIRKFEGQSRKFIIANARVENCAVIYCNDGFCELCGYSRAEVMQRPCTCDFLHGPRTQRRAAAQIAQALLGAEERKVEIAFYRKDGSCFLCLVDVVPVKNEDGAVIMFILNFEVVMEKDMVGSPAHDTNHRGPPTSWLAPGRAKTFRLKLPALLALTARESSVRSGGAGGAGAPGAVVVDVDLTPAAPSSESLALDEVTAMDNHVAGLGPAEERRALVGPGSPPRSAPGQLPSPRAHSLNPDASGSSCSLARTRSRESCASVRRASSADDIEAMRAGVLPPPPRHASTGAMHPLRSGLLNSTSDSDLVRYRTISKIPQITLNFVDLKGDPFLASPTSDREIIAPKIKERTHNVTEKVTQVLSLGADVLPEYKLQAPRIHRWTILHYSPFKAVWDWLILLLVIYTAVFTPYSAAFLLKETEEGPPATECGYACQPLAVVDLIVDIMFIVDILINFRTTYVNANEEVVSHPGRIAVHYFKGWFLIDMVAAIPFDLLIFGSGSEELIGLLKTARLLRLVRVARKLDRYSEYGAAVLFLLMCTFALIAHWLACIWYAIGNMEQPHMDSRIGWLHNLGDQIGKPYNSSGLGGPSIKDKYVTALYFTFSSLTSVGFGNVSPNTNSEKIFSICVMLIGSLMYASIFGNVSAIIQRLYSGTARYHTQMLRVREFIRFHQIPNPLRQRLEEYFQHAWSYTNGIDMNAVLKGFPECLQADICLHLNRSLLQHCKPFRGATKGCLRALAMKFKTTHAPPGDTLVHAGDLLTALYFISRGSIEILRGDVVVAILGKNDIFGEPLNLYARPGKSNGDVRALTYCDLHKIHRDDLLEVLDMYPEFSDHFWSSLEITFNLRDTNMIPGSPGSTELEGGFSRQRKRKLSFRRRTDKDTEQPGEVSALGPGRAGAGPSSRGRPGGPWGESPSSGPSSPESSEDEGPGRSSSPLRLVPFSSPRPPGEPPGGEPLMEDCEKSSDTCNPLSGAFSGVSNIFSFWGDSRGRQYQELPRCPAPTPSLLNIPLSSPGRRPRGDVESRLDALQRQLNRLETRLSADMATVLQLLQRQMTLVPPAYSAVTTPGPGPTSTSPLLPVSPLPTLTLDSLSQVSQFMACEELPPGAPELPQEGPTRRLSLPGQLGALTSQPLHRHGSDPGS
row,SMILES,"hERG current change (%, negative = inhibition) at 1uM [%]"
1,S=C(Nc1ccc(Cc2ccncc2)cc1)Nc1cccc(Cl)c1,5.91
2,O=C(COC(=O)c1ccccc1-c1ccccc1[N+](=O)[O-])c1ccccc1,8.36
3,CCCCc1cc2c(c(NC(C)=O)n1)c(=O)oc1ccccc12,15.8
4,O=C(C1CCN(S(=O)(=O)c2cccc3cccnc23)CC1)N1CCN(Cc2ccccc2)CC1,-1.55
5,CC1=NN(c2ccccc2)C(=O)/C1=C\c1cc(C)n(-c2cccnc2)c1C,16.3
6,O=c1cc(Cl)[nH]c(=O)n1Cc1ccc(F)cc1,14.9
7,O=C(COc1ccc(Cl)cc1)Nc1ccc(C(=O)O)cc1NC(=O)COc1ccc(Cl)cc1,13.1
8,Cc1ccc(C(=O)C(C)OC(=O)CNS(=O)(=O)c2ccc(C)cc2)cc1 (stereo not drawn),2.07
9,CCOc1ccc(-c2nc(CSCC(=O)N3CCN(C(=O)c4ccco4)CC3)c(C)o2)cc1,-8.95
10,COc1cccc(N(CC(=O)NCCN2CCOCC2)S(=O)(=O)c2ccccc2)c1,4.79
11,CC(=O)N1CCN(c2ccc(N=Cc3c(O)n(-c4ccc(Cl)cc4)c(=O)[nH]c3=O)cc2)CC1,3.84
12,Cc1onc(-c2c(Cl)cccc2Cl)c1C(=O)Nc1ccc(C(N)=O)cc1,8.28
13,Cc1nc2c(-c3ccc(F)cc3)c(C)nn2c(C)c1CCC(=O)Nc1ccc(F)cc1F,12.2
14,O=C1CCc2cc(S(=O)(=O)N3CCN(c4cccc(Cl)c4)CC3)ccc2N1,-1.29
15,COc1ccc(C(=O)NC(=S)Nc2cccc3nc(C)ccc23)cc1OC,12.5
16,CCOC(=O)c1[nH]c(C)c(C(=O)NCc2ccc(C)cc2)c1C,7.5
17,O=C(Cn1nc(-c2ccccc2)nc1-c1ccccc1)N1CCOCC1,10.1
18,CC(=O)C1=C(O)C(=O)N(Cc2ccco2)C1c1ccc(F)cc1 (stereo not drawn),-1.67
19,CCC(C(=O)NCCCN1CCN(CC)CC1)n1nc(C)n2c(cc3occc32)c1=O (stereo not drawn),11.8
20,CCCN1C(=O)CSC1=Nc1ccccc1,11.8
21,CCCCC(=O)Nc1ccc(C(=O)NNC(=O)c2cccs2)cc1,3.66
22,CCNC(=O)CSc1nnc(-c2ccccc2)n1-c1ccc(OCC)cc1,-48.5
23,N#CCNC(=O)C1c2ccccc2Oc2ccccc21,14.5
24,Cc1nc(SCC(=O)c2ccccc2)c(C#N)c(-c2ccco2)c1C(=O)NCc1ccco1,2.31
25,Cc1ccc(CNC(=O)Cn2c(=O)c3sccc3n(Cc3ccc([N+](=O)[O-])cc3)c2=O)cc1,-3.44
26,CCOc1ncccc1C(=O)Nc1ccc(F)cc1,6.95
27,O=C(NC1CCCC1)C(c1ccccc1)N(C(=O)c1ccno1)c1ccccc1 (stereo not drawn),10.8

row,SMILES,"hERG current change (%, negative = inhibition) at 1uM [%]"
1,COc1ccc(CCNC(=O)C2CCCN(S(C)(=O)=O)C2)cc1OC (stereo not drawn),14.9
2,COC(=O)C1=C(COc2ccccc2)NC(=O)NC1c1ccc2ccccc2c1 (stereo not drawn),14.4
3,Cc1cccc(C2Nc3cccc4cccc(c34)N2)c1,8.84
4,CCCCn1c(N)c(N(CC(C)C)C(=O)c2ccc(Cl)c(S(=O)(=O)N3CCCC3)c2)c(=O)[nH]c1=O,9.58
5,O=C(COC(=O)c1cc(=O)[nH]c(=O)[nH]1)NCc1ccccc1,18.3
6,CCS(=O)(=O)C1=NSC2=NC(=O)/C(=C\c3cc(C)n(-c4cccc(OC)c4)c3C)C(=N)N21,0.321
7,CCOC(=O)N/N=C/c1c(C)nn(-c2ccccc2Cl)c1Cl,-0.338
8,O=C1C=C(c2ccccc2)C[C@H](c2cccs2)[C@H]1n1cnc([N+](=O)[O-])c1,2.53
9,Cc1nnc(Cl)c2nn(-c3ccccc3)c(C)c12,19.1
10,Cc1ccc(-n2c(C)cc(/C=N/NC(N)=S)c2C)cc1,16.5
11,COc1cc2c(cc1OC)C(NC(=O)C(F)(F)F)C/C2=N\O (stereo not drawn),0.323
12,CCOC(=O)c1cccc(P(C)(C)=O)c1,12.4
13,O=C(CCc1cn(Cc2ccc(F)cc2)c2ccccc12)N1CCOCC1,6.5
14,COc1ccc(C(=O)Nc2ccc(/C(C)=N/NC(=O)c3ccncc3)cc2)cc1,-7.49
15,COc1ccc(OCc2nnc3n2N=C(c2ccc(C)cc2)CS3)cc1,11.7
16,COCCSc1ccccc1C(=O)Nc1nccs1,10.9
17,Cn1c(=O)c2c(nc(Oc3ccc4c(c3)OCO4)n2Cc2ccc(F)cc2)n(C)c1=O,12.5
18,O=S(=O)(N/N=C\c1ccc2c(c1)OCO2)c1ccc(F)cc1,15.9
19,Cc1ccc(-c2nnn(CC(=O)Nc3ccc(S(=O)(=O)N4CCC(C)CC4)cc3)n2)cc1,0.314
20,Cc1ccc(S(=O)(=O)NC2CC(C)(C)NC(C)(C)C2)cc1,27.5
21,CCC(CC)COC(=O)C1=C(C)NC(=O)NC1c1ccc([N+](=O)[O-])cc1 (stereo not drawn),9.49
22,Cc1nn2cc(-c3cccc(Cl)c3)cnc2c1Cl,6.1
23,COc1ccc(Sc2cc(C(F)(F)F)nc(-c3ccccn3)n2)cc1,4.35
24,CCN(CC(=O)NCc1cccs1)C(=O)c1cccc(S(=O)(=O)Nc2ccc(OC)cc2)c1,2.84
25,O=S1(=O)N[C@H](c2ccccc2)C[C@H](c2ccc(C(F)(F)F)cc2)O1,18.2
26,O=C(/C=C/c1ccncc1)c1cc(Cl)ccc1O,18.6
27,CCc1ccccc1NC(=O)CN1C(=O)C2CCCN2c2ncc(Cl)cc21 (stereo not drawn),11.8
